About 1,700 (0.52%) of roughly 330,000 compounds were called active. Inconclusive means that the source gave no clear call. Such entries were picked first, then a sample of the others. Calls come from the whole dose curve; as a rule, active = well fitted inhibition curve with a large enough effect; inconclusive = small, poorly fitted or top-dose-only effect; inactive = no such curve, though single readings can be large or run the other way. Potencies of inconclusive entries are doubtful fits and often do not repeat.
These compounds were tested against Beta-lactamase (Escherichia coli (strain K12)) (UniProt P00811) (assay: qHTS Inhibitors of AmpC Beta-Lactamase (assay without detergent)). Details: AmpC nitrocefin hydrolysis, absorbance 480 nm, 0.0001% Triton; activity change, negative = inhibition: at 57.1 µM (top of the series) unless noted.
UniProt P00811, sequence (P00811 whole entry, looked up): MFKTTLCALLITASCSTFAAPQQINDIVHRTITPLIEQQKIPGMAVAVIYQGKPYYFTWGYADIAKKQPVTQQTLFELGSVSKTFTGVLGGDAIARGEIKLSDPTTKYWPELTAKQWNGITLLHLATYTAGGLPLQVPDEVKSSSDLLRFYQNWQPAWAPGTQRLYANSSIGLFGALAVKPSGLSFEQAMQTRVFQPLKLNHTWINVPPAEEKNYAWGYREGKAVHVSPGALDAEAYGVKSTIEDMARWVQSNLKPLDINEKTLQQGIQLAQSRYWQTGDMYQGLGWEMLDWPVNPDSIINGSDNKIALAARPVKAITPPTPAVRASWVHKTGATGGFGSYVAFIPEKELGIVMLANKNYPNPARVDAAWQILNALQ
Procedure, shortened: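 AmpC (5.3 nM in the dispensed reagent) in 20 mM phosphate pH 7.0 with 0.01% (detergent screen) or 0.0001% Triton X-100 was preincubated with compounds for 15 min at room temperature. Nitrocefin was then added from an 800 uM solution, and hydrolysis was followed at 480 nm.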
In the case of `COc1cc(NC(=O)C2CCN(S(=O)(=O)c3ccc(Cl)cc3)CC2)ccc1-n1cnnn1`, the Potency is reported as inconclusive: 8.91 µM [inhibitor, partial curve].
For `Clc1cccc(Cl)c1C1Nc2cccc3cccc(c23)N1`, the “activity change, negative = inhibition” value was inactive: -29.6%.
`NC(=O)c1nsc(C(=O)N(c2ccccc2F)C(C(=O)NCc2ccccc2)c2ccc(O)cc2)c1N` (stereo not given) was tested, and the Potency was inconclusive: 10 µM [inhibitor, partial curve].
With `Cc1ccc(NC(=O)CN(c2ccc(Cl)cc2)S(=O)(=O)c2cc([N+](=O)[O-])ccc2Cl)c(C)c1` the Potency was inconclusive: 3.16 µM [inhibitor, full curve, poor fit].
For `Cc1cc2c(C)ccc(C)c2nc1SCC(=O)c1cccs1`, the Potency was active: 0.178 µM.
In the case of `COc1ccc(Cc2nnc(NC(=O)CSc3ccccc3)s2)cc1`, the Potency is reported as inconclusive: 0.282 µM [inhibitor, full curve, poor fit].
With `O=c1cc(CO)oc(C(Nc2ccccn2)c2cccc(F)c2)c1O` (stereo not given) the Potency was active: 39.8 µM.
`Cc1ccc(N=C2SC(C(=O)Nc3ccc(OC(F)(F)F)cc3)C(N)=C2C(=O)Nc2c(C)cc(C)cc2C)cc1` (stereo not given) was tested, and the “activity change, negative = inhibition” value was inactive: -5.92%.
With `CCCCn1nc2cc(C(=O)NCCc3cccs3)ccc2c1OCC` the Potency was inconclusive: 0.251 µM [inhibitor, full curve, poor fit].
In the case of `O=C(c1ccccc1)c1ccc(NCCCn2ccnc2)c([N+](=O)[O-])c1`, the “activity change, negative = inhibition” value is reported as inactive: 29.1%.
In the case of `CC1(C)S[C@@H]2[C@H](NC(=O)[C@H](N)c3ccccc3)C(=O)N2[C@H]1C(=O)OC1OC(=O)c2ccccc21` (stereo not given in full), the Potency is reported as active: 0.224 µM.
`CCC(Oc1ccccc1)C(=O)NC1C(=O)N2C1SC(C)(C)C2C(=O)O` (stereo not given) was tested, and the Potency was active: 28.2 µM.
With `CC(=O)NC(CC(=O)OCC(=O)N1CCN(S(=O)(=O)c2ccc(Cl)cc2)CC1)c1ccccc1` (stereo not given) the Potency was inconclusive: 39.8 µM [inhibitor, single point].
In the case of `CC(C)CN(C(=O)c1ccc(S(=O)(=O)N2CCCC2)cc1)C1CCS(=O)(=O)C1` (stereo not given), the Potency is reported as inconclusive: 28.2 µM [inhibitor, single point].
`CC(C)(C)c1ccc(OCC(=O)N2CCN(C=O)CC2)cc1` was tested, and the Potency was inconclusive: 6.31 µM [inhibitor, single point].
With `COc1ccc(C(=O)NCCS(=O)(=O)N2CCOCC2)cc1` the Potency was inconclusive: 39.8 µM [inhibitor, single point].
In the case of `COC(=O)c1cn(CC(=O)NCc2ccco2)c2ccccc12`, the Potency is reported as inconclusive: 3.98 µM [inhibitor, single point].
For `COc1ccc(CCN(C(=O)C(F)(F)F)C(C(=O)NC2CCCC2)c2cccs2)cc1OC` (stereo not given), the Potency was inconclusive: 6.31 µM [inhibitor, single point].
`CCOC(=O)C1(C(=O)OCC)CC1c1ccccc1` (stereo not given) was tested, and the Potency was active: 4.47 µM.
In the case of `Oc1ccc(C2Nc3cccc4cccc(c34)N2)cc1`, the Potency is reported as inconclusive: 25.1 µM [inhibitor, single point].
With `CCCNC(=O)Cc1cc(=O)[nH]c(=O)[nH]1` the Potency was inconclusive: 0.501 µM [inhibitor, full curve, poor fit].
`CCc1cccc2c(SC(C)C(=O)NCC3CCCO3)nc(-c3ccccc3)nc12` (stereo not given) was tested, and the Potency was inconclusive: 6.31 µM [inhibitor, single point].
With `O=C1/C(=C/c2ccco2)SC(=S)N1CC1CCCO1` (stereo not given) the “activity change, negative = inhibition” value was inactive: -31.9%.
`COc1ccc(C)cc1NC(=O)C(=O)NNC(=O)c1ccco1` was tested, and the Potency was inconclusive: 6.31 µM [inhibitor, single point].
With `Cc1cc(C(=O)CSc2n[nH]c(N)n2)c(C)n1-c1cccc(F)c1` the Potency was inconclusive: 31.6 µM [inhibitor, partial curve].
For `CC1CCN(S(=O)(=O)c2ccc(NC(=O)C3CSC4(C)CCC(=O)N34)cc2)CC1` (stereo not given), the Potency was active: 14.1 µM.
In the case of `CC1=C(C(=O)NC2CCCC(C)C2C)C2(CCCCC2)OC1=O` (stereo not given), the Potency is reported as active: 35.5 µM.
In the case of `O=C(OCC(=O)c1c[nH]c2ccccc12)c1cc2ccccc2cc1O`, the Potency is reported as inconclusive: 35.5 µM [inhibitor, single point].
`COC(=O)C1(C)Nc2ccccc2C(=O)N1c1ccccc1C` (stereo not given) was tested, and the Potency was active: 1 µM.
In the case of `O=C(COc1ccccc1)Nc1cccc(-c2ccc(N3CCOCC3)nn2)c1`, the Potency is reported as inconclusive: 39.8 µM [inhibitor, single point].
For `O=C(CSc1nnc(NC(=O)c2c(F)cccc2F)s1)NCc1ccco1`, the Potency was inconclusive: 35.5 µM [inhibitor, single point].
For `CCOC(=O)CCc1c(C)c2ccc(OCC(=O)OC(C)C)cc2oc1=O`, the Potency was inconclusive: 5.62 µM [inhibitor, single point].
`Cc1occc1-c1nnc(SCC(=O)c2c[nH]c3ccccc23)n1C` was tested, and the “activity change, negative = inhibition” value was inactive: -6.31%.
For `CCOc1ccc(NC(=O)COC(=O)CNC(=O)c2ccc(-c3ccccc3)cc2)cc1`, the “activity change, negative = inhibition” value was inactive: -18.6%.
With `Cc1cc(C)cc(NC(=O)COC(=O)COc2cccc3c2OC(C)(C)C3)c1` the Potency was active: 35.5 µM.
With `Cc1ccc(S(=O)(=O)Nc2ccc(NC(=O)c3c(F)c(F)c(F)c(F)c3F)cc2)cc1` the Potency was inconclusive: 3.98 µM [inhibitor, full curve, poor fit].
`Cc1cccc(N2CCN(C(=O)C3CCN(S(=O)(=O)c4cccc5nsnc45)CC3)CC2C)c1` (stereo not given) was tested, and the Potency was inconclusive: 5.01 µM [inhibitor, single point].
For `CC(=O)/C(=C\Nc1ccc(OCc2ccccc2)cc1)c1ccccc1`, the Potency was inconclusive: 5.01 µM [inhibitor, single point].
For `COc1ccc(C2(CCN)CC(C)N(C)CC2C)cc1` (stereo not given), the “activity change, negative = inhibition” value was inactive: -10.1%.
With `CC1Sc2ccc(S(=O)(=O)NCCc3ccc(Cl)cc3)cc2NC1=O` (stereo not given) the Potency was inconclusive: 3.55 µM [inhibitor, full curve, poor fit].
With `CCN1CCN(CCCNC(=O)c2ccc3c(c2)NC(=O)c2ccccc2S3)CC1` the Potency was active: 3.98 µM.
With `O=C(Cc1cccs1)Nc1ccc(F)c(S(=O)(=O)N2CCOCC2)c1` the “activity change, negative = inhibition” value was inactive: -35.7%.
For `Nc1cc(-c2cccc(F)c2)nn1S(=O)(=O)c1cccc2nsnc12`, the Potency was inconclusive: 25.1 µM [inhibitor, single point].
In the case of `Cc1ccc(-c2nc(Nc3cccc(O)c3)c3ccccc3n2)cc1`, the Potency is reported as inconclusive: 7.94 µM [inhibitor, partial curve].
In the case of `COCCN(C(=O)COC(=O)c1ccccc1Nc1ccccc1)c1c(N)n(Cc2ccccc2)c(=O)[nH]c1=O`, the Potency is reported as inconclusive: 39.8 µM [inhibitor, single point].
With `FC(F)(F)c1ccc(Cl)c(-n2c(-c3ccco3)n[nH]c2=S)c1` the “activity change, negative = inhibition” value was inactive: -15.2%.
`N#CCc1ccc(C(=O)c2ccccc2)s1` was tested, and the Potency was inconclusive: 0.158 µM [inhibitor, full curve, poor fit].
In the case of `COC(=O)c1ccc(NC2=C(Cl)C(=O)OC2OC(=O)c2ccccc2)cc1` (stereo not given), the Potency is reported as active: 4.47 µM.
With `CCc1nnc(NS(=O)(=O)c2ccc(NC(=S)NC(=O)/C=C/c3ccc(C(C)C)cc3)cc2)s1` the Potency was inconclusive: 14.1 µM [inhibitor, partial curve].
For `O=C1NCCCc2c1no[n+]2[O-]`, the Potency was inconclusive: 1.58 µM [inhibitor, partial curve, poor fit].
With `CCCn1c2c(c(O)c(C(=O)NCc3ccccc3)c1=O)CCCC2` the “activity change, negative = inhibition” value was inactive: -0.601%.
With `COc1ccccc1CNS(=O)(=O)CCNC(=O)c1ccccc1` the Potency was inconclusive: 31.6 µM [inhibitor, single point].
`CC1CN(C(=O)c2cc(S(=O)(=O)N3CCCC3)c(Cl)cc2Cl)CC(C)O1` (stereo not given) was tested, and the Potency was inconclusive: 0.141 µM [inhibitor, full curve, poor fit].
With `COC(=O)c1ccc(CNC(=O)c2ccc(OCC(=O)N3CCOCC3)c(OC)c2)cc1` the Potency was inconclusive: 35.5 µM [inhibitor, single point].
`Cc1ccccc1NC1=C(Cl)C(=O)OC1OC(=O)c1ccccc1C` (stereo not given) was tested, and the Potency was active: 10 µM.
In the case of `CCCOc1ccc(CNC(=O)Cn2c(=O)oc3ccccc32)cc1`, the Potency is reported as active: 7.94 µM.
For `Cc1cccc(Cn2c(N(C)CCO)nc3c2c(=O)[nH]c(=O)n3C)c1`, the Potency was active: 11.2 µM.
For `CCC(CC)c1nn2c(N)c(/C=C3\C(C)=Nc4ccccc43)c(=O)nc2s1`, the Potency was active: 7.94 µM.
For `O=C(CCn1c(=S)oc2ccccc21)Nc1cccc(O)c1`, the Potency was inconclusive: 35.5 µM [inhibitor, single point].
`O=S(=O)(NCc1cccs1)c1ccc(Cl)s1` was tested, and the “activity change, negative = inhibition” value was inactive: -25%.
With `N#CC1=C(S)N(c2ccccc2)C(c2ccc(-c3ccccc3Cl)o2)NC1=O` (stereo not given) the Potency was inconclusive: 10 µM [inhibitor, partial curve].
With `NS(=O)(=O)c1ccc(N2N=C(c3ccccc3)CC2c2ccc(F)cc2)cc1` (stereo not given) the Potency was inconclusive: 0.708 µM [inhibitor, partial curve, poor fit].
For `COc1ccc(-c2cc(-c3ccccc3)nc(SCC(=O)Nc3nccs3)c2C#N)cc1`, the “activity change, negative = inhibition” value was inactive: -25%.
In the case of `CC(=O)Nc1ccc(S(=O)(=O)NCCN2CCNC2=O)cc1Cl`, the “activity change, negative = inhibition” value is reported as inactive: -4.57%.
`Cc1cc(C(C#N)c2ccc(Cl)cc2)c(Cl)cc1NC(=O)c1cc(I)cc(I)c1O` (stereo not given) was tested, and the Potency was inconclusive: 1.78 µM [inhibitor, partial curve].
With `Cc1ccc(C(=O)NNC(=O)c2cc3ccccc3cc2O)cc1` the Potency was active: 28.2 µM.
With `CCc1cccc2c(C(=O)COC(=O)c3ccc(O)cc3)c[nH]c12` the Potency was active: 28.2 µM.
With `CCC(=O)NC(=S)Nc1ccc(NC(=O)COc2ccc([N+](=O)[O-])cc2)cc1` the Potency was inconclusive: 7.94 µM [inhibitor, full curve, poor fit].
In the case of `O=C(Nc1nc(-c2ccccc2)cs1)C1c2ccccc2Oc2ccccc21`, the Potency is reported as active: 0.178 µM.
In the case of `COc1ccc(S(=O)(=O)N2CCCCCC2)cc1C(=O)N(C)Cc1ccc(Cl)cc1Cl`, the Potency is reported as inconclusive: 39.8 µM [inhibitor, single point].
Note: nearly all actives have a fitted effect of over 20% in size.
Potency is the fitted concentration of half-maximal effect; tags give direction and shape of the fitted curve.
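Throughout, for activity change, negative = inhibition: plate controls were no compound for no effect and no enzyme for full effect.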
